# From the supplement of paper PMC3334620
# Whole data set: some 33,000 sequences, median “E-score (-0.5 to 0.5)” near -0.021, cut for the highest 2% near 0.32. The list shows a part of the results.
# Biological target: T1, Zap1 (UniProt P47043)
# T1 sequence: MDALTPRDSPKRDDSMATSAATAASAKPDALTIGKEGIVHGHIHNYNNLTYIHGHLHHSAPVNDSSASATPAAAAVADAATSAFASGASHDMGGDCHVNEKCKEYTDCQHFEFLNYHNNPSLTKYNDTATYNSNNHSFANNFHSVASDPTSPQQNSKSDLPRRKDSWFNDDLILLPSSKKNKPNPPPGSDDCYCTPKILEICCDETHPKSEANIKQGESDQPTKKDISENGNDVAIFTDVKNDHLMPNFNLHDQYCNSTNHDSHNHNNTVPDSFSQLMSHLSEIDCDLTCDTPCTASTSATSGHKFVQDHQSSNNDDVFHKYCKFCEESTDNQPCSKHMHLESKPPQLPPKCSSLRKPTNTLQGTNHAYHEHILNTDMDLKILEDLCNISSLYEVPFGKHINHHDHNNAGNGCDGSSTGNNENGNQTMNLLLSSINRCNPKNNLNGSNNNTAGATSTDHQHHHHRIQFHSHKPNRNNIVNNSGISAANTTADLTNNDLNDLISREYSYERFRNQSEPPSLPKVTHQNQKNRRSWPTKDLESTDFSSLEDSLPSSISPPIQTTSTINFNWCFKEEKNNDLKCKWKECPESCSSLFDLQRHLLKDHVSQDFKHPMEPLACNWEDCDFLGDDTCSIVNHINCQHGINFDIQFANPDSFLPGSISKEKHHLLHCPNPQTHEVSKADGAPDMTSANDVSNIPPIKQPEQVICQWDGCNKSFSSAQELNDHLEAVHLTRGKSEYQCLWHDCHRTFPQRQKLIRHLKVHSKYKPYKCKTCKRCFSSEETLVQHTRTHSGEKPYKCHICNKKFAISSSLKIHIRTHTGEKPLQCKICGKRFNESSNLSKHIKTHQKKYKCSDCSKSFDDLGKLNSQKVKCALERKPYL
# Test: PBM E-score (8-mer binding enrichment) (E-score (-0.5 to 0.5)); higher = stronger / more preferred TF binding; most listed sequences are background and not binding sites
# Details: protein concentration: 200 nM; construct: GST-full length
# Outline: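 Masliner-normalised scans of fluorescent anti-GST signal were the basis for scoring. That signal came from GST-tagged yeast transcription factors applied at about 100-200 nM to double-stranded universal all-10-mer Agilent arrays on fresh or once-stripped slides. Each ungapped eight-base word, pooled with its reverse complement, received an E-score from the Universal PBM Analysis Suite.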
row,Sequence,PBM E-score
1,AGTAGATC,-0.125
2,CTGAGTGA,0.0814
3,GTTTTCGA,0.0665
4,AACGAAAG,0.0621
5,GGGGTGGA,-0.0651
6,CATTGGTC,-0.00134
7,CACAAATC,0.169
8,AAAGTTCC,0.00456
9,TCATGAAA,0.0953
10,GAGCCGGC,-0.0316
11,AGTTTATG,0.15
12,CTAAGATA,0.0311
13,CACCTCTC,-0.242
14,ATGTGTCG,0.044
15,CAGTTCGG,0.0968
16,CGTGAGCC,-0.104
17,AGCAATAC,0.0449
18,ACTTTCCG,-0.0516
19,ATCAATTA,0.235
20,ACCTTGGG,0.327
21,AGGTGGCG,0.114
22,TGTGTGAA,0.0282
23,TCTACAAA,0.174
24,AATGTAGT,-0.118
25,ACTTGAGA,-0.17

row,Sequence,PBM E-score
1,AACATGTA,0.091
2,AATCTTAT,-0.00936
3,GAGCGATA,-0.183
4,ACAGTGCG,-0.273
5,ACTCCTCG,-0.00893
6,AAGAATAT,-0.139
7,GCGCACAA,0.0815
8,CTAGTTGC,-0.196
9,AGTCGTTA,-0.147
10,ACGGTGTA,-0.154
11,CGTCCCCC,-0.321
12,ATAATCGG,0.178
13,ATCTGATG,-0.141
14,CCTTGTTA,0.12
15,ATACCATC,0.00041
16,GCGGAAAC,-0.0491
17,GTATCTAA,0.207
18,TAACGAAA,0.241
19,AGGCAGTA,-0.236
20,GGCAACAC,-0.0775
21,GAACATAC,0.132
22,ACAAAAAC,0.182
23,TCCGTACA,0.00697
24,GACTACAA,-0.0528
25,ACGAGCGA,-0.106

row,Sequence,PBM E-score
1,ATCTCGAC,0.0101
2,CGCAGATA,-0.0113
3,CAGGAGGA,-0.181
4,GAATGGCA,-0.0917
5,CATAATGG,0.0138
6,GTCGAATA,-0.0377
7,GATATGAA,0.161
8,AGACGGAG,-0.126
9,ATACGCTA,-0.127
10,CCGTTACC,0.303
11,CACAGCGA,0.0609
12,ATCTTAGA,0.0614
13,ATTATGTA,0.113
14,ACCAGTCT,-0.0264
15,CACTAATG,-0.0365
16,ACGTCTGG,-0.177
17,GTGACGCA,0.0591
18,AAGTATAC,0.132
19,ACTTGAAC,0.0351
20,ACTCCCCC,-0.422
21,CGTCTCTC,-0.105
22,ACCGGTTG,0.119
23,ACTCTTCA,-0.114
24,AACTCTTG,0.093
25,AGTCTGGG,-0.264

row,Sequence,PBM E-score
1,AACACGGC,-0.107
2,AGACAGAT,-0.0789
3,AGCAATGC,-0.0926
4,AGATGGGA,-0.251
5,AGTCGATA,-0.109
6,ATAAGGCC,-0.115
7,ATTCCTAA,0.0801
8,CTCTGCAA,0.0741
9,GCGACTCC,-0.265
10,TGTCATAA,0.184
11,GATCAAAA,0.0234
12,CGACGTTC,-0.256
13,AAACGAAG,0.0582
14,GTGCGCCA,-0.175
15,GTAAAAAA,0.313
16,TGGCTAAA,0.0808
17,AAATTCAC,-0.0619
18,AGTTCGAG,0.0375
19,GGCTAAAC,-0.0561
20,TGGTTGAA,-0.00067
21,GATAAATA,0.172
22,ATGATCCC,-0.0993
23,CACCGAAG,0.119
24,AACGTCAC,-0.109
25,GGATTATA,-0.059

row,Sequence,PBM E-score
1,GGGCGCAA,-0.0239
2,CGGAGCAC,-0.215
3,ATCCTACA,-0.0985
4,CGCAAGGC,-0.144
5,ATCATGCG,-0.0906
6,CGCGGGTC,0.25
7,CGTAACAG,-0.0999
8,ACGGGGAG,-0.206
9,ATTCAAAG,0.11
10,CCTTAGTA,0.0285
11,CAACGACA,-0.0731
12,AACTCCGC,-0.158
13,CAGACCTA,-0.0315
14,CAAAAACG,0.102
15,CTCGAAAA,0.144
16,CGGGGGCA,-0.0833
17,CAACCAAG,0.198
18,CGCTCATA,-0.0445
19,AGATACCC,0.325
20,AAGCCCGG,-0.295
21,AGTAACAG,0.0886
22,GACGAATC,-0.0909
23,GAACGATA,-0.00592
24,ACATGAGC,-0.288
25,ACCTCTGG,0.237

row,Sequence,PBM E-score
1,CAGACCCC,-0.0477
2,AAACCCTA,0.423
3,CCCCAGGG,0.319
4,TAGAGAGA,-0.0661
5,GTGATAAC,0.251
6,AGAGATGG,-0.0367
7,ACAAATCA,0.106
8,GGATCACA,-0.0629
9,CACCGCCA,-0.0283
10,CAATTGCC,-0.229
11,GCGTCGCC,-0.162
12,CGGTTCTA,0.0975
13,ATGCCCAC,-0.0481
14,CTCCAACC,0.0771
15,CTCGGTGC,-0.057
16,AAATTTAC,0.145
17,GAAAAACC,0.247
18,CGCACTGC,0.0263
19,ACGCAGGG,0.103
20,CGTTTAAG,-0.127
21,AAGCGGGG,-0.193
22,AGCTCAGC,-0.155
23,AACCATCG,0.224
24,CTCACGGC,-0.0638
25,ATTGTACC,0.157

row,Sequence,PBM E-score
1,CACAGCTG,-0.0441
2,GGTACCGA,0.239
3,TACGCCGA,-0.193
4,AAATAGGG,0.141
5,GGCACTTA,-0.036
6,CAGTTAGG,-0.0141
7,AGTCTTAG,-0.182
8,ACCTTGAG,0.354
9,GAACAGTA,0.00581
10,GGGTAAAC,0.194
11,CAGAATGG,-0.0394
12,ACCAGGGT,0.358
13,CCGGCCCC,-0.13
14,GTTATACA,0.269
15,AACTGTAC,-0.0743
16,GTGAATCA,-0.103
17,AGACGTCT,-0.266
18,AAATGTGT,0.191
19,AGCGAATA,-0.154
20,CTGATGTA,-0.0474
21,TCAATGCA,-0.197
22,ACGGGTAG,0.255
